Test results as given in PubChem BioAssay AID1768 (National Center for Advancing Translational Sciences (NCATS), 2009).
Values joined by “and” are separate entries in the source; they are usually repeats but may differ in a detail not shown here. Equal values may be shown once. About 620 (0.23%) of roughly 270,000 compounds were called active. The inconclusive results got no clear call from the source; some entries with a clear call stand among them for comparison. Calls follow the shape of the dose curve; as a rule, active = well fitted inhibition curve with a large enough effect in the polarisation, with a control signal flat (not every such curve was filed as active); inconclusive = small, poorly fitted or top-dose-only effect, or effect the other way, or a change in a side signal; inactive = no such curve, though single readings can be large or run the other way; the % refers to the polarisation. Potencies of inconclusive entries are doubtful fits and often do not repeat. “Side channel” marks fits to a control or component signal instead of the main read-out.

What follows are compounds tested against Menin (Homo sapiens) (UniProt O00255) (assay: qHTS Assay for Inhibitors Targeting the Menin-MLL Interaction in MLL Related Leukemias: Competition With Texas Red Labeled MLL-derived Mutant Peptide). Conditions: fluorescence polarization; FP activity change, negative = inhibition: at 61.6 µM (top of the series).
Sequence of UniProt O00255 (O00255 whole entry, looked up): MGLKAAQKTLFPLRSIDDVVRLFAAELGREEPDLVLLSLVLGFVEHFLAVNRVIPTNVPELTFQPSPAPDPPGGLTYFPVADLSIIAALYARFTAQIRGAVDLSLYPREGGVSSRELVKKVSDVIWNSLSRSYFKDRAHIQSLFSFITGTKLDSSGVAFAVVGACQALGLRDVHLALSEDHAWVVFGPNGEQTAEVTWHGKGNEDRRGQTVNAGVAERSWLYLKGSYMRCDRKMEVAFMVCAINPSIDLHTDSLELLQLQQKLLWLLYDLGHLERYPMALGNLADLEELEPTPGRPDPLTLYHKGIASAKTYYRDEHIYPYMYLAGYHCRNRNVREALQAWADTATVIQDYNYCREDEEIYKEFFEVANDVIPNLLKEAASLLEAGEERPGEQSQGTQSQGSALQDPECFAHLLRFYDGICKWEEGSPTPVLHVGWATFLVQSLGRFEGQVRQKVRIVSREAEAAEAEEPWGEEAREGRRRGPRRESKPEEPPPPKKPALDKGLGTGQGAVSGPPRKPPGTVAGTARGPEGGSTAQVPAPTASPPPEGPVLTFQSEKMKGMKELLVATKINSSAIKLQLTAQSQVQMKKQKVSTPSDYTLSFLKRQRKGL

For FP activity change, negative = inhibition in this document: % of control where 0% means no effect.
Potency is read from the fitted curve at half-maximal effect; tags tell the direction and shape of the fitted curve or compound fluorescence and quenching.

SMILES | Potency | FP activity change, negative = inhibition
Cc1ccc(NC(=O)Nc2ccc3c(c2)N(C)C(=O)CS3)cc1C | inconclusive: 39.8 µM [fluorescent, side channel, single point] | –
Cc1ccc(S(=O)(=O)N2CCN(C(=O)CCn3nc(C)c(C)c3C)CC2)cc1C | – | inactive: -17.7%
CC(=O)c1ccc(OC(=O)CCN2c3ccccc3Sc3ccccc32)cc1 | inconclusive: 10 µM [quencher, side channel, partial curve] | –
Cc1nn(C)c(C)c1N1C(=O)c2cccc3c(Br)ccc(c23)C1=O | – | inactive: 5.79%
NCC(O)COCCC12CC3CC(CC(C3)C1)C2 (stereo unspecified) | inconclusive: 17.8 µM [fluorescent, side channel, partial curve] | –
COc1cccc(NS(=O)(=O)c2ccc3[nH]cc(C(=O)NCCC(C)C)c(=O)c3c2)c1 | inconclusive: 1.41 µM [quencher, side channel, full curve] | –
COc1ccc(/C=N/NC(=O)c2ccncc2)cc1CN1CCCc2ccccc21 | inconclusive: 17.8 µM [quencher, side channel, partial curve] | –
O=C(CCN1C(=O)/C(=C\c2ccc(F)cc2)SC1=S)Nc1ccccc1 | inconclusive: 39.8 µM [inhibitor, partial curve, poor fit] | –
O=C(/C=C/c1ccc(OCCCF)cc1)N1CCN(Cc2ccccc2)CC1 | inconclusive: 10 µM [fluorescent, side channel, partial curve] | –
O=C(N/N=C/c1ccoc1)c1cc(Br)ccc1O | inconclusive: 28.2 µM [quencher, single point] | –
COc1ccc(/C=N/Nc2cc(C)nc3c(C)cccc23)cc1 | inconclusive: 31.6 µM [inhibitor, single point] | –
COc1ccc(C(C)=O)cc1CSc1nc2cc(C(=O)O)ccc2c(=O)n1Cc1ccccc1 | inconclusive: 31.6 µM [quencher, side channel, single point] | –
CCCC(=O)n1nc(-c2cccnc2)nc1NCc1ccc(OC)cc1 | inconclusive: 28.2 µM [inhibitor, partial curve] | –
O=C(CNC(=O)C(c1ccccc1)c1ccccc1)N/N=C\c1ccc2c(c1)OCO2 | inconclusive: 25.1 µM [fluorescent, side channel, single point] | –
CCN1C(=O)C(CC(=O)Nc2ccc(OC)cc2)N(CCc2ccc(OC)cc2)C1=S (stereo unspecified) | inconclusive: 7.94 µM [quencher, side channel, partial curve] | –
CC(/C=C1\SC(=S)N(CCC(=O)Nc2ccccc2O)C1=O)=C\c1ccccc1 | inconclusive: 4.47 µM [inhibitor, full curve] | –
Brc1ccc(-c2nc3ccccc3s2)s1 | – | inactive: 2.22%
O=C1CC(c2ccccc2)CC2=C1C=Nc1ccccc1N2 (stereo unspecified) | inconclusive: 39.8 µM [inhibitor, single point] | –
Cc1ccc(/C(O)=C2/C(=O)C(=O)N(c3ccccn3)C2c2ccc([N+](=O)[O-])cc2)cc1 (stereo unspecified) | inconclusive: 22.4 µM [quencher, side channel, partial curve] | –
Cc1cc(C)cc(Nc2c(F)c(F)c(F)c(F)c2C(=O)O)c1 | inconclusive: 25.1 µM [quencher, side channel, single point] | –
CCCCN1C(=O)/C(=C/C=C2/CC(C)(C)CN2C)SC1=S | – | inactive: 7.19%

SMILES | Potency | FP activity change, negative = inhibition
COCCNC(=O)Cc1c(C)c2c(cc(C)c3c(C(C)(C)C)coc32)oc1=O | inconclusive: 39.8 µM [fluorescent, side channel, partial curve] | –
CC(C)(C)C(=O)Oc1ccc(S(=O)(=O)Nc2ccccc2C(=O)NCC(=O)O)cc1 | – | inactive: 8.07%
O=C(Nc1ccc(OC(F)F)c(Cl)c1)Nc1ccc2c(c1)OCO2 | inconclusive: 11.2 µM [quencher, side channel, partial curve] | –
COc1ccc(OC)c(NC2=NC3(CCCCC3)N=C(N)N2)c1 | – | inactive: -12.6%
CSc1ccc2c(c1)C(N1CCN(C)CC1)Cc1ccccc1S2 (stereo unspecified) | inconclusive: 8.91 µM [fluorescent, side channel, partial curve] and inconclusive: 6.31 µM [fluorescent, side channel, partial curve] | –
Cn1c(=O)c2c(SCC(=O)N3CCCc4ccccc43)nc(CC(C)(C)C)nc2n(C)c1=O | inconclusive: 3.16 µM [fluorescent, side channel, full curve] | –
COc1cc([N+](=O)[O-])ccc1NC(=S)NC(=O)CC(C)(C)C | inconclusive: 10 µM [quencher, side channel, partial curve] | –
CN1CC(c2ccccc2)C2(COc3ccccc3C2=O)C12C(=O)Nc1ccccc12 (stereo unspecified) | inconclusive: 22.4 µM [inhibitor, partial curve] | –
O=C(NC(c1ccc(Cl)cc1)c1c(O)ccc2ccccc12)c1ccccc1 (stereo unspecified) | inconclusive: 39.8 µM [inhibitor, single point] | –
Cc1ccc(SCC(=O)Nc2ccc(N3CCN(c4ccccc4)CC3)c(F)c2)cc1 | inconclusive: 35.5 µM [quencher, side channel, single point] | –
COc1ccc(CC(C(=O)Nc2cccc(F)c2)c2nn[nH]n2)c(OC)c1 (stereo unspecified) | inconclusive: 25.1 µM [quencher, side channel, single point] | –
CCN(CC)Cc1nc2c(c(=O)[nH]1)C(CC)(CC)Cc1ccccc1-2 | inconclusive: 3.98 µM [fluorescent, side channel, partial curve] | –
Cc1ccc(N(CCCCN2C(=O)c3ccccc3C2=O)C(=O)c2cccs2)cc1 | inconclusive: 10 µM [inhibitor, partial curve] | –
CC(=O)c1sc(NC(=O)c2cc(-c3ccccc3)nn2-c2ccccc2)nc1C | – | inactive: 8.54%
CN(C)c1ccc(N2C(=O)CSC2=S)cc1 | inconclusive: 25.1 µM [fluorescent, side channel, partial curve] | –
COc1ccc(C(=O)c2oc3ccc(OC)cc3c2N)cc1 | inconclusive: 17.8 µM [quencher, side channel, partial curve] | –
Cc1ccc(SC/C(O)=C(\C#N)c2nc3ccccc3s2)cc1 | inconclusive: 39.8 µM [quencher, side channel, single point] | –
O=S(=O)(Nc1nc2c(s1)CCCC2)c1ccc(F)cc1 | – | inactive: -0.0016%
Cc1c(C(=S)Nc2ccccc2)cnn1-c1ccc([N+](=O)[O-])cc1 | inconclusive: 22.4 µM [quencher, side channel, partial curve] | –
O=C(CCN1C(=O)C2C3C=CC(C3)C2C1=O)N1CCN(c2ccccn2)CC1 (stereo unspecified) | – | inactive: -14.4%
CC(=O)Nc1nc(S(=O)(=O)c2ccc(C)cc2)c(Cl)s1 | inconclusive: 25.1 µM [quencher, side channel, single point] | –

SMILES | Potency | FP activity change, negative = inhibition
CC1=CC(C)(C)Nc2ccc(C)cc21 | – | inactive: -4.82%
Cc1nc2ccc([N+](=O)[O-])cc2c(=O)n1Cc1ccc(Cl)cc1 | inconclusive: 31.6 µM [quencher, side channel, single point] | –
COCCn1c(=O)c(-c2cc(F)cc(F)c2)nc2cnc(OC)nc21 | – | inactive: 14.7%
COc1cc(OC)cc(C(=O)NCCC(c2ccccc2)c2ccccc2)c1 | inconclusive: 10 µM [inhibitor, partial curve] | –
CCOC(=O)c1[nH]ncc1CN1CCCC(C(=O)c2cc(Cl)ccc2OC)C1 (stereo unspecified) | inconclusive: 12.6 µM [fluorescent, side channel, partial curve] | –
Cc1cc(/C=C2\SC(=S)NC2=O)c(C)[nH]1 | inconclusive: 25.1 µM [quencher, side channel, partial curve] | –
Cc1cccc(NC(=O)c2cc(=O)[nH]c3ccccc23)c1 | inconclusive: 10 µM [inhibitor, partial curve] | –
COc1ccccc1-c1nnc(NC(=O)c2ccc(S(=O)(=O)N(C)CC3CCCO3)cc2)o1 (stereo unspecified) | inconclusive: 35.5 µM [quencher, side channel, single point] | –
Cc1cc(C)c(NC(=S)NCC2CCN(C(C)c3ccccc3)C2)c(C)c1 (stereo unspecified) | – | inactive: -20.8%
COc1nnc(-c2ccc(C)c(S(=O)(=O)NCCO)c2)c2ccccc12 | inconclusive: 35.5 µM [inhibitor, single point] | –
O=C(COc1ccccc1)Nc1nnc(S(=O)(=O)N2CCCC2)s1 | inconclusive: 31.6 µM [quencher, side channel, partial curve] | –
N#CC1=C(N)OC2=C(C(=O)CCC2)C1CCc1ccccc1 (stereo unspecified) | – | inactive: -13.7%
O=C(NC(=S)NNC(=O)c1ccccc1[N+](=O)[O-])c1ccc(Br)cc1 | inconclusive: 25.1 µM [quencher, side channel, single point] | –
CC(Oc1ccc([N+](=O)[O-])cc1Cl)C(=O)Nc1ccc(C(N)=O)cc1 (stereo unspecified) | inconclusive: 31.6 µM [quencher, side channel, single point] | –
CCOc1cc(C2Nc3cccc4cccc(c34)N2)ccc1O | inconclusive: 7.94 µM [quencher, side channel, full curve] | –
COC(=O)c1ccc(CSc2nc3c(cnn3-c3ccc(Cl)cc3)c(=O)[nH]2)o1 | inconclusive: 17.8 µM [quencher, side channel, partial curve] | –
CC(C)(C)c1ccc(-c2c(C#N)c(N)nc3c2CCCC3)s1 | – | inactive: -13.6%
CN1CCN(C(c2ccccn2)c2cc(Cl)c3cccnc3c2O)CC1 (stereo unspecified) | – | inactive: -0.903%
Cc1cc(=O)oc2cc(OC(=O)CCCCCN3C(=O)c4ccccc4C3=O)ccc12 | inconclusive: 20 µM [fluorescent, side channel, single point] | –
